In the assay the test system is MIWI (PIWIL1) piRISC loaded with L1MC piRNA (30 nt). The experiment in a line: pre-steady-state target cleavage rate (min^-1); MIWI and MILI are mouse PIWI proteins and EfPiwi is from a freshwater sponge; tags in brackets are library labels; higher = faster piRNA-guided slicing of the target. As to conditions: guide: L1MC piRNA 5'p-UAACUAAAUACUAUGCAAGCUGUAGGUCCU
A digest of the protocol:
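The pre-steady-state cleavage rate was obtained by Cleave-'n-Seq with a burst-and-steady-state fit. A transcribed, DNA-blocked target RNA library (0.1 nM) was mixed with 1 nM active affinity-purified piRISC carrying one synthetic guide, with or without 500 nM GTSF1 partner protein, in HEPES–potassium acetate buffer at 33 °C for 0–8 or 0–960 min. Uncleaved targets were sequenced and normalised to depth and to weakly complementary targets, with three trials pooled and k3 capped at 0.0001 min^-1.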

The mark [1] stands for this setting: auxiliary factor: 500 nM mouse GTSF1.
The mark [2] stands for this setting: auxiliary factor: none (no GTSF1).

± gives the standard deviation. Only a part is listed here, and it is no random draw.

Turning to UCGACCUACAGCUUGCUUAGUAUUUACUUA, the “pre-steady-state target cleavage rate” value reads like this: under setting [1], 0.758 ± 0.055; under setting [2], 0.0254 ± 0.0061.
For the sequence UCCUGGUACAGCUUGCAUUGUAUUUAGUUA, the “pre-steady-state target cleavage rate” value is 0.394 ± 0.032 under setting [1] and 0.0216 ± 0.0049 under setting [2].
As for UCCUGCUACAGCUUGCAUAGAUUUUAGUUA, the “pre-steady-state target cleavage rate” value runs as follows: under setting [1], 0.117 ± 0.012; under setting [2], 0.00384 ± 0.0023.
The corresponding values for UCCUGCUACACCUUGCAUAGUAUAUAGUUA are 0.308 ± 0.045 and 0.0293 ± 0.0057.
The corresponding values for AGGAGGUACAGCUUGCAUAGUAUUUAGUAA are 0.803 ± 0.079 and 0.0437 ± 0.0095.
Taken in the same sequence, the figures for UGGACCUACAGCUUGGAUAGAAUUUAGUUA were 0.359 ± 0.044 and 0.0169 ± 0.0058.
With UCCUCCUACAGCUAGCAAAGUAUUUAGUUA, the “pre-steady-state target cleavage rate” value reads like this: under setting [1], 0.731 ± 0.027; under setting [2], 0.00626 ± 0.0022.
The corresponding values for UCCUCCAACAGCUUGCAUAGAAUUUAGUUA are 0.394 ± 0.036 and 0.0218 ± 0.0054.
The corresponding values for UCCACCUACAGCUUGCAAAGAAUUUAGUUA are 0.242 ± 0.029 and 0.00734 ± 0.0028.
In the case of UCCUCCUACAGCUAGCAUAGUUUUUAGUUA, the “pre-steady-state target cleavage rate” value reads like this: under setting [1], 0.315 ± 0.023; under setting [2], 0.0114 ± 0.0022.
For UCCUGGAACAGCUUGCAUAGUAGUUUAGUUA, the “pre-steady-state target cleavage rate” value is 0.283 ± 0.018 under setting [1] and 0.00882 ± 0.0034 under setting [2].
The corresponding values for UCCUCCUACAGCUUGCAUUGUAUUUUGUUA are 0.558 ± 0.027 and 0.0146 ± 0.004.
Taken in the same sequence, the figures for UCCACCUACAGCUAGCUUAGUAUUUAGUUA were 0.749 ± 0.035 and 0.00804 ± 0.0022.
For UCCUGGAUGUGCUUGCACAGUAUUUAGUUA, the “pre-steady-state target cleavage rate” value under setting [1] amounted to 0.558 ± 0.049 and the “pre-steady-state target cleavage rate” value under setting [2] worked out at 0.0421 ± 0.011.
As to UCCUGGUAGAGCUUGCAUAGAAUUUAGUUA, the “pre-steady-state target cleavage rate” value by setting is: under setting [1], 0.167 ± 0.019; under setting [2], 0.0205 ± 0.0076.
In the case of “UCCUGGAUGAGCUUGCAUAGUAUUUAGUUA [g2:g21:cont:t1A]”, the “pre-steady-state target cleavage rate” value turned out to be 0.91 ± 0.042 under setting [1] and 0.0657 ± 0.013 under setting [2].
As to UCGACCUUCAGCUUGCAUACUAUUUAGUUA, the “pre-steady-state target cleavage rate” value by setting is: under setting [1], 0.376 ± 0.023; under setting [2], 0.032 ± 0.007.
The corresponding values for UCCUGGAACAGGCUUGCAUAGUAUUUAGUUA are 0.756 ± 0.029 and 0.0527 ± 0.01.
Taken in the same sequence, the figures for UCCUGGUACUGCUUGCAUAGUAUUUAGUUA were 0.454 ± 0.054 and 0.0342 ± 0.0058.
Taken in the same sequence, the figures for UGGUCCUACAGCUAGCAUAGUAUUUAGUUA were 0.995 ± 0.03 and 0.0426 ± 0.009.
Consider UCCUGGAUGAGCUUGCUUAGUAUUUAGAAA, for which the “pre-steady-state target cleavage rate” value turned out to be 0.0699 ± 0.02 under setting [1] and 0.0037 ± 0.0031 under setting [2].
Taken in the same sequence, the figures for UCCUGGAUCAGCUUGCAUAGUAUUUAGAUUA were 0.16 ± 0.02 and 0.017 ± 0.0039.
The corresponding values for UGGACCUACUGGUUGCAUAGUAUUUAGUUA are 1 ± 0.063 and 0.0358 ± 0.008.
Consider UCCUGGAACAGCUUGCAUAGUGUUUAGUUA, for which the “pre-steady-state target cleavage rate” value under setting [1] was determined as 0.474 ± 0.029 and the “pre-steady-state target cleavage rate” value under setting [2] was determined as 0.0552 ± 0.01.
The corresponding values for UCCUCCUACAGCUUGCUAUGUAUUUAGUUA are 0.145 ± 0.018 and 0.00383 ± 0.0014.
Taken in the same sequence, the figures for UCCACCUACAGCUUGCAUACUAUUUAGUUA were 0.373 ± 0.031 and 0.026 ± 0.0043.
Taken in the same sequence, the figures for AGGACCUACAGCUUGCAUAGUAUAUAGUUA were 0.884 ± 0.066 and 0.0667 ± 0.017.
Turning to AGGACCUACAGCUUGCAUAGUAUUAUCUUA, the “pre-steady-state target cleavage rate” value under setting [1] was determined as 0.335 ± 0.051 and the “pre-steady-state target cleavage rate” value under setting [2] was 0.00684 ± 0.0037.
The corresponding values for ACGACCUACAGCUUGCAUAGUAUAUAGUUA are 0.91 ± 0.04 and 0.0788 ± 0.018.
Taken in the same sequence, the figures for AGGACCUACAGCCUUGCAUAGUAUUUAGUUA were 1.23 ± 0.069 and 0.0878 ± 0.019.
Turning to UCCUGGAACAGCUUGCAUAGUAUAAAGUUA, the “pre-steady-state target cleavage rate” value by setting is: under setting [1], 0.359 ± 0.039; under setting [2], 0.0115 ± 0.0046.
Taken in the same sequence, the figures for UCCACCUUGUGCUUGCAUAGUAUUUAGUAA were 0.218 ± 0.029 and 0.0153 ± 0.0028.
The corresponding values for ACGACCUACAGCUUGCAUAGUAUUUACUUA are 0.379 ± 0.029 and 0.0444 ± 0.0076.
Taken in the same sequence, the figures for UCCUGGAACAGCAUGCAUACUAUUUAGUUA were 0.343 ± 0.021 and 0.0203 ± 0.0053.
Turning to UCCUCCUACAGCUUGCAAAGUAUUUAGAAA, the “pre-steady-state target cleavage rate” value runs as follows: under setting [1], 0.267 ± 0.037; under setting [2], 0.00288 ± 0.0024.
The corresponding values for UCCUGGUACAGCAUGCAUAGUAUUUAGAUA are 0.317 ± 0.036 and 0.00711 ± 0.002.
Taken in the same sequence, the figures for AGGACCUACAGCUGUGCAUAGUAUUUAGUUA were 1.29 ± 0.063 and 0.0583 ± 0.012.
As for UCCUGGAUGUGCUUGCAUAGUAUUUAGUUUA, the “pre-steady-state target cleavage rate” value was determined as 0.415 ± 0.024 under setting [1] and 0.0352 ± 0.0084 under setting [2].
In the case of AGGACCUACAGCUUGGAUAGUAUUUACAAA, the “pre-steady-state target cleavage rate” value came out at 0.175 ± 0.036 under setting [1] and 0.00394 ± 0.002 under setting [2].
As to UGGAGCUACAGCUUGCAUUGUAUUUAGUUA, the “pre-steady-state target cleavage rate” value by setting is: under setting [1], 0.934 ± 0.038; under setting [2], 0.0337 ± 0.0068.
For the sequence UCCUGGUAGAGCUUGCAUAGUAUAUAGUUA, the “pre-steady-state target cleavage rate” value was determined as 0.491 ± 0.062 under setting [1] and 0.0144 ± 0.0047 under setting [2].
Taken in the same sequence, the figures for UCCUCCUACAGCUUGCAUAGUAUUUAAGUUA were 0.596 ± 0.031 and 0.0323 ± 0.007.
The corresponding values for UCCUGGAACAGCUUCCUUAGUAUUUAGUUA are 0.267 ± 0.021 and 0.00323 ± 0.0025.
Taken in the same sequence, the figures for UGGACCUACACCUUGCAUAGUAAUUAGUUA were 0.607 ± 0.057 and 0.0215 ± 0.0063.
In the case of UCCUGGAUCAGCUUGCAUAUUAUUUAGUUA, the “pre-steady-state target cleavage rate” value under setting [1] stood at 1.22 ± 0.058 and the “pre-steady-state target cleavage rate” value under setting [2] turned out to be 0.0383 ± 0.011.
For AGGACCUACAGCUUGCAUUGUAUUUAGAAA, the “pre-steady-state target cleavage rate” value by setting is: under setting [1], 0.277 ± 0.045; under setting [2], 0.00518 ± 0.0027.
For the sequence UCCUGGAUGAACUUGCAUAGUAUUUAGUUA, the “pre-steady-state target cleavage rate” value turned out to be 0.499 ± 0.035 under setting [1] and 0.0175 ± 0.0053 under setting [2].
The corresponding values for UCGACCUACAGCUUGCAUAGGAUUUAGUUA are 0.0503 ± 0.0089 and 0.00712 ± 0.0025.
For the sequence UCCUGGAUGUGCUUGCAUAGUAUUAAGAUA, the “pre-steady-state target cleavage rate” value by setting is: under setting [1], 0.0152 ± 0.0068; under setting [2], 0.00358 ± 0.0031.
Consider UCCUGGAUCAGCUUGCAUAGUUAUUAGUUA, for which the “pre-steady-state target cleavage rate” value by setting is: under setting [1], 0.0809 ± 0.012; under setting [2], 0.0161 ± 0.004.
Taken in the same sequence, the figures for UCCUGGAUCAGCUUGCAUAGUUUAUAGUUA were 0.0282 ± 0.0076 and 0.0095 ± 0.0025.
UCCUGCUACAGCUUGCAUAGUAUUUACAUA: the “pre-steady-state target cleavage rate” value under setting [1] was found to be 0.242 ± 0.034 and the “pre-steady-state target cleavage rate” value under setting [2] came out at 0.00933 ± 0.004.
Take AGGACCUACAGGAUGCAUAGUAUUUAGUAA: the “pre-steady-state target cleavage rate” value is, setting by setting: under setting [1], 0.783 ± 0.079; under setting [2], 0.0141 ± 0.0026.
Regarding AGGAGCUUCAGCUUGCAUAGUAUUUAGUUA, the “pre-steady-state target cleavage rate” value stood at 1.48 ± 0.047 under setting [1] and 0.0864 ± 0.015 under setting [2].
Taken in the same sequence, the figures for UCCUCCUACAGCGUGCAUAGUAUUUAGUUA were 1.4 ± 0.042 and 0.0379 ± 0.0072.
On to UCCUGGAUCAGCUUGCAUGGUAUUUAGUUA, for which the “pre-steady-state target cleavage rate” value is, setting by setting: under setting [1], 1.03 ± 0.057; under setting [2], 0.0491 ± 0.014.
Take UCCUGGAACACCUUGCAUAGUAUUUAGAAA: the “pre-steady-state target cleavage rate” value under setting [1] came to 0.143 ± 0.029 and the “pre-steady-state target cleavage rate” value under setting [2] was determined as 0.00306 ± 0.003.
As for UCCUGGAACAGCUUCAUAGUAUUUAGUUA, the “pre-steady-state target cleavage rate” value by setting is: under setting [1], 0.95 ± 0.051; under setting [2], 0.00772 ± 0.0027.
On to UGGUCCUACAGCUUCCAUAGUAUUUAGUUA, for which the “pre-steady-state target cleavage rate” value was determined as 0.0846 ± 0.02 under setting [1] and 0.00418 ± 0.0022 under setting [2].
Taken in the same sequence, the figures for UCCUGCUACUAGCUUGCAUAGUAUUUAGUUA were 0.638 ± 0.045 and 0.0546 ± 0.012.

The record behind these values is the supplement of paper PMC10338343.
